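Tested at 5 concentrations; 48 h exposure; 96-well plates; endpoints linearly interpolated, else capped at highest concentration. Abbreviation: GI50, concentration required for 50% inhibition of growth.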 The source made the active and inactive calls. Cut-off read from the data, not from the text of the source: active = GI50 up to about 1.1 µM and inactive = higher.

In this assay the test system is NCI-H322M. The assay is described as follows: DTP human tumour cell line panel, 48 h.
As usually defined, the GI50 is the concentration giving 50% growth inhibition. Regarding `O=C1C(c2c(O)[nH]c3ccc(I)cc23)=Nc2ccccc21`, the GI50 is inactive: 4.22 µM.

On to `COc1cc2cc(C(=O)N3CC(CCl)c4c3cc(O)c3ccccc43)[nH]c2c(OC)c1OC` (centres undefined), for which the GI50 is active: < 0.005 µM.

As for `C/C(=C1/CCC/C(=C(/C)c2ccccc2)C1=O)c1ccccc1`, the GI50 is inactive: > 100 µM.

For the molecule `O=C(c1ccco1)N(C(=S)N1CCN(c2ccccc2)CC1)c1ccccc1`, the GI50 was inactive: > 100 µM.

`Cc1ccc(NC(=O)CCC(=O)C(C#N)c2ccccc2)cc1C` (centres undefined): the GI50 was inactive: > 100 µM.

For the molecule `COc1cccc2c1C1(O)C2CCCC12OCCCO2` (centres undefined), the GI50 was inactive: > 100 µM.

In the case of `N=C(N)/N=C(/C=C/c1ccccc1)CC1OC(=O)c2ccccc21` (centres undefined), the GI50 is inactive: > 100 µM.

As for `CC1CC/C(=C\c2ccc(F)cc2)C2=C1C(c1ccc(F)cc1)N1C(=O)CSC1=N2` (centres undefined), the GI50 is inactive: > 100 µM.

On to `COc1ccc(NC(=S)Nc2cc(C)cc(C)n2)cc1`, for which the GI50 is inactive: > 100 µM.

On to `CO/C=C(/C(=O)OC)c1ccccc1[C@H]1C[C@@H]1c1ccc(OC)cc1`, for which the GI50 was inactive: 48.2 µM.

For the molecule `COc1cc(Nc2c3ccccc3nc3ccccc23)ccc1NS(C)(=O)=O`, the GI50 is inactive: 5.79 µM.

Take `O=C(O)C(Br)Cc1ccc2c(c1)OCO2` (centres undefined): the GI50 is inactive: > 100 µM.

Regarding `Cc1cc(C)c(S(=O)(=O)N(CCCCN)OCCCN)c(C)c1`, the GI50 was inactive: 15.5 µM.

With `O=C(O/N=C1/CCCC/C1=C\c1ccccc1)c1ccc(Cl)c(Cl)c1`, the GI50 was inactive: 25.9 µM.

For the molecule `CNc1ccc2c(c1)[C@@]1(C)c3ccccc3[C@@H](C2)N1C`, the GI50 is inactive: 34.2 µM.

Regarding `CN(C)CCNC(=O)c1cccc2[nH]c(-c3ccccc3)nc12`, the GI50 is inactive: 16.3 µM.

Regarding `CNC(=O)O/N=C1\N(C)CN(c2ccccc2)C12CCN(CCCC(=O)c1ccc(F)cc1)CC2`, the GI50 is inactive: 45.7 µM.

On to `O=C(Oc1ccc(C(c2c(O)c3ccccc3oc2=O)c2c(O)c3ccccc3oc2=O)cc1)c1ccc(C(=O)c2ccccc2)cc1`, for which the GI50 was inactive: 27.4 µM.

In the case of `COc1ccc(C(OCC2OC(n3cnc4c(=O)n(Cc5ccccc5[N+](=O)[O-])nnc43)C(O)C2O)(c2ccccc2)c2ccc(OC)cc2)cc1` (centres undefined), the GI50 was inactive: 21.3 µM.

Turning to `COC(=O)N1CCc2c(nc(N(C)CCO)[nH]c2=O)C1`, the GI50 was inactive: > 100 µM.

Turning to `O=C1c2ccccc2C2(c3ccc(Cl)cc3)N[C@H]3CCCC[C@@H]3N12` (some centres undefined), the GI50 was inactive: 96.2 µM.

For the molecule `N#CSC1CCCCNC1=O` (centres undefined), the GI50 was inactive: 16.3 µM.

Turning to `CCCCCCN1C(=O)CC(=O)N(CCCCCC)S1(=O)=O`, the GI50 is inactive: 37.7 µM.

In the case of `C=CCC1C(=O)CC2(C)CC(=O)C(CC=C)C12C` (centres undefined), the GI50 was inactive: > 100 µM.

For the molecule `O=C(Nc1ccccc1F)c1cc2ccc(O)cc2o/c1=N\c1ccccc1F`, the GI50 was inactive: 2.16 µM.

`CC(Cc1ccc(Cl)cc1Cl)NO` (centres undefined): the GI50 is inactive: > 100 µM.

As for `C=CCN(N=O)C(=O)NCCCCC(NC(C)=O)C(=O)NCc1ccccc1` (centres undefined), the GI50 is inactive: > 100 µM.

In the case of `N#CC(NCCc1ccccc1)c1ccccc1` (centres undefined), the GI50 is inactive: > 100 µM.

As for `COc1cc2cc(C(=O)Nc3cc4n(n3)-c3ccccc3C4)[nH]c2c(OC)c1OC`, the GI50 was inactive: 6.56 µM.

Take `CCO/C=C1\N=C(c2ccccc2Br)OC1=O`: the GI50 is inactive: > 100 µM.

Take `CCOC(=O)/C(O)=C(/C(=O)OC)c1ccc(Cl)cc1`: the GI50 was inactive: > 100 µM.

Consider `O=C(O)c1cc(=O)c2c(OCC(O)COc3cccc4oc(C(=O)O)cc(=O)c34)cccc2o1`, for which the GI50 is inactive: > 100 µM.

For the molecule `COc1ccc2nc(-c3ccc(O)cc3)sc2c1`, the GI50 was inactive: > 100 µM.

As for `COc1cc(OC)c2[nH]c3c(O)c(-c4c(C)cc5c([nH]c6c(OC)cc(OC)cc65)c4O)c(C)cc3c2c1`, the GI50 is inactive: 8.38 µM.

The values are drawn from ChEMBL document CHEMBL1201862, “PubChem BioAssay data set” (2004).
